Experimental data taken from the supplement of paper PMC7826260.
This is one part of the list. The data describe in vitro nicking of single-stranded DNA by Rep domains (1 h at 37 °C, 3 µM enzyme); the outer parts of the 90-letter strands are left off. Uncut reads are compared with the no-enzyme pool on a log2 scale; uncut sequences lie near 0, cut ones below; no hit call is given. Because reads are shares of a total, they shift together; values above 0 arise when much of the pool is cut.

Each sequence was assayed on T1, Rep nickase domain of tomato golden mosaic virus (assay: uncleaved DNA left, log2 of reads against the no-enzyme library (log2 ratio); higher = less cleavage (more negative = more Rep cleavage of the k-mer); sequences stand for … in CTCGTCCG…ACCGGAGA).
T1 sequence (Rep 1-124, printed without the tag): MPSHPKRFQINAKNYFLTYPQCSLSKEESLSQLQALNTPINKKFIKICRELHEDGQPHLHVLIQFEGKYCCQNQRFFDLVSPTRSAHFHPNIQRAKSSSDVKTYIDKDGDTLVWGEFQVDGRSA
Procedure: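 A pool of 90-nt single-stranded DNAs with seven random bases just before the constant AC of the nick site (name = the seven bases) was cut by 3 µM recombinant His6-SUMO-tagged Rep nickase domain (300 nM DNA, 50 mM HEPES pH 8.0, 50 mM NaCl, 1 mM MnCl2, 1 h, 37 °C, three replicates). Uncut DNA was amplified and sequenced.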

**Q.** For ACATTGA, which “uncleaved DNA left (log2)” value is on record?
**A.** -0.076

**Q.** With TGGCGAC as the sequence, how does the “uncleaved DNA left (log2)” value read?
**A.** -0.0672

**Q.** How did the “uncleaved DNA left (log2)” value turn out when ATGATAG was run?
**A.** 0.0202

**Q.** Which “uncleaved DNA left (log2)” value does the source give for CGTCATG here?
**A.** -0.103

**Q.** For GATAGGC, which “uncleaved DNA left (log2)” value is on record?
**A.** 0.0127

**Q.** How did the “uncleaved DNA left (log2)” value turn out when CGCGCTA was run?
**A.** -0.168

**Q.** How did the “uncleaved DNA left (log2)” value turn out when TGAGCCC was run?
**A.** -0.056

**Q.** GCATACT was tested. Which “uncleaved DNA left (log2)” value did it give?
**A.** -0.176

**Q.** For AACTAAG, which “uncleaved DNA left (log2)” value is on record?
**A.** 0.0412

**Q.** With AGTAGCC as the sequence, how does the “uncleaved DNA left (log2)” value read?
**A.** -0.0536

**Q.** Which “uncleaved DNA left (log2)” value does the source give for CCCCTGG here?
**A.** -0.0612

**Q.** How did the “uncleaved DNA left (log2)” value turn out when CGGTTCT was run?
**A.** -0.101

**Q.** GATTTCG was tested. Which “uncleaved DNA left (log2)” value did it give?
**A.** -0.173

**Q.** Which “uncleaved DNA left (log2)” value does the source give for GTTGGAC here?
**A.** 0.0442

**Q.** How did the “uncleaved DNA left (log2)” value turn out when GCACGAT was run?
**A.** 0.143

**Q.** For TAACTTC, which “uncleaved DNA left (log2)” value is on record?
**A.** -0.335

**Q.** For GCGCAAC, which “uncleaved DNA left (log2)” value is on record?
**A.** -0.0782

**Q.** Which “uncleaved DNA left (log2)” value does the source give for AAGTGTG here?
**A.** -0.00362

**Q.** How did the “uncleaved DNA left (log2)” value turn out when ACCCGTA was run?
**A.** 0.09

**Q.** Which “uncleaved DNA left (log2)” value does the source give for CTGCCTG here?
**A.** 0.0576

**Q.** CGTCTCC was tested. Which “uncleaved DNA left (log2)” value did it give?
**A.** -0.0701

**Q.** How did the “uncleaved DNA left (log2)” value turn out when GAGGACA was run?
**A.** 0.106

**Q.** For ATGCTTG, which “uncleaved DNA left (log2)” value is on record?
**A.** 0.0592

**Q.** Which “uncleaved DNA left (log2)” value does the source give for TATCATC here?
**A.** -0.159

**Q.** How did the “uncleaved DNA left (log2)” value turn out when AGGTCAT was run?
**A.** 0.0398

**Q.** How did the “uncleaved DNA left (log2)” value turn out when CGCCCAG was run?
**A.** -0.0976

**Q.** Which “uncleaved DNA left (log2)” value does the source give for AAGAGTG here?
**A.** 0.102

**Q.** For AGTATTG, which “uncleaved DNA left (log2)” value is on record?
**A.** 0.0603

**Q.** With TAGTAAA as the sequence, how does the “uncleaved DNA left (log2)” value read?
**A.** 0.0973

**Q.** GGGGCTA was tested. Which “uncleaved DNA left (log2)” value did it give?
**A.** 0.155

**Q.** With GTTGAGT as the sequence, how does the “uncleaved DNA left (log2)” value read?
**A.** 0.016

**Q.** With CACTGAA as the sequence, how does the “uncleaved DNA left (log2)” value read?
**A.** -0.125

**Q.** For ATTCGCA, which “uncleaved DNA left (log2)” value is on record?
**A.** -0.196

**Q.** For AATACTT, which “uncleaved DNA left (log2)” value is on record?
**A.** -0.0746

**Q.** For TACTCTG, which “uncleaved DNA left (log2)” value is on record?
**A.** -0.0833

**Q.** With GCAACGA as the sequence, how does the “uncleaved DNA left (log2)” value read?
**A.** -0.049

**Q.** TGAATGA was tested. Which “uncleaved DNA left (log2)” value did it give?
**A.** -0.0292

**Q.** For AACGACA, which “uncleaved DNA left (log2)” value is on record?
**A.** -0.0422

**Q.** CTTTTTT was tested. Which “uncleaved DNA left (log2)” value did it give?
**A.** -0.0438

**Q.** Which “uncleaved DNA left (log2)” value does the source give for CGATGGA here?
**A.** -0.072
